# Measurements published in the supplement of paper PMC12645437, “Orthogonal IMiD-Degron Pairs Induce Selective Protein Degradation in Cells” (ACS Chemical Biology, 2025).
# Some of the results follow.
# Molecular target: no compound (DMSO)
# Assay: log2 fold change of degron read counts, EGFP-low vs EGFP+ sorted cells; higher = lower degron-EGFP level without compound (poor expression or instability)
# Conditions: compound: DMSO control; 18 h
# 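Further: jurkat cells carrying a lentiviral library of mutant zinc finger degrons fused to EGFP plus mCherry, mCherry+ cells FACS sorted, degron abundance counted by next-generation sequencing.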
row,Sequence,log2 fold change of degron read counts
1,FDCNQCGHRFTQKGNLLRHIKL,0.376
2,FACEVCGAMFTQKGNLLRHIKL,-0.269
3,LGCNQCGFCCTQKGNLLRHIKL,0.862
4,FLCSVCGHMFTQKGNLLRHIKL,0.481
5,LDCNQCGFSCTQKGNLLRHIKL,-0.117
6,FECNVCGAMFTQKGNLLRHIKL,-1.2
7,FYCPICGRLFTQKGNLLRHIKL,-1.8
8,FQCEVCGAAFTQKGNLLRHIKL,-1.7
9,FKCNQCGRWFTQKGNLLRHIKL,0.426
10,FMCEICGHCFTQKGNLLRHIKL,-1.93
11,FECEICGRQFTQKGNLLRHIKL,-1.37
12,FSCNICGANFTQKGNLLRHIKL,-0.931
13,FSCPICGRDFTQKGNLLRHIKL,-0.689
14,FSCDQCGAFFTQKGNLLRHIKL,-0.866
15,FMCEVCGAYFTQKGNLLRHIKL,-1.09
16,FTCNVCGARFTQKGNLLRHIKL,-1.02
17,FRCSVCGHPFTQKGNLLRHIKL,0.325
18,LQCEICGFQCTQKGNLLRHIKL,-0.278
19,FYCPICGAPFTQKGNLLRHIKL,0.861
20,LKCEICGFVCTQKGNLLRHIKL,-0.596
21,FNCPQCGAGFTQKGNLLRHIKL,-1.71
22,FNCDICGALFTQKGNLLRHIKL,-0.704
23,FECPVCGACFTQKGNLLRHIKL,-0.738
24,FFCDVCGAAFTQKGNLLRHIKL,-0.25
25,FGCNQCGAFFTQKGNLLRHIKL,0.269

row,Sequence,log2 fold change of degron read counts
1,FVCPQCGAKFTQKGNLLRHIKL,-1.37
2,FMCNICGADFTQKGNLLRHIKL,-1.05
3,FFCSVCGHWFTQKGNLLRHIKL,1.79
4,FLCEQCGAQFTQKGNLLRHIKL,-2.41
5,FNCNICGAFFTQKGNLLRHIKL,0.157
6,LWCPICGFSCTQKGNLLRHIKL,1.93
7,FCCSVCGHPFTQKGNLLRHIKL,-0.023
8,FDCNVCGAEFTQKGNLLRHIKL,-1.06
9,FGCEICGRDFTQKGNLLRHIKL,-0.775
10,FCCDVCGAEFTQKGNLLRHIKL,-1.74
11,FGCPVCGARFTQKGNLLRHIKL,-0.733
12,FACNQCGARFTQKGNLLRHIKL,-1.62
13,FMCNVCGAHFTQKGNLLRHIKL,-0.643
14,FHCEQCGADFTQKGNLLRHIKL,-2.94
15,FTCPVCGAGFTQKGNLLRHIKL,0.00224
16,FYCPICGALFTQKGNLLRHIKL,1.07
17,FGCSVCGHWFTQKGNLLRHIKL,1.68
18,FDCEICGHAFTQKGNLLRHIKL,-0.281
19,FGCNQCGASFTQKGNLLRHIKL,-0.135
20,FRCEICGADFTQKGNLLRHIKL,-1.73
21,FICPICGADFTQKGNLLRHIKL,-0.0549
22,FNCDQCGAAFTQKGNLLRHIKL,-1.78
23,FGCPICGRLFTQKGNLLRHIKL,0.56
24,FCCEICGAHFTQKGNLLRHIKL,-1.2
25,FRCDVCGAMFTQKGNLLRHIKL,-1.5
